Among the data in PubChem BioAssay AID1346428 (National Center for Advancing Translational Sciences (NCATS), 2018) are activation values, retold here.

Where “and” joins values, the source holds several entries; their conditions need not be identical. Equal values may be shown once. In all, about 48,000 compounds went through this assay and about 1,200 (2.5%) were called active. Another 2% or so got no clear call; they are omitted.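 The calls were made as follows: active = activation of at least 60% and not above a set upper limit (about 1 call in 100 departs from these limits); inconclusive = activation of 40% to 60%, or above that upper limit; inactive = activation under 40%.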 The list shows a part of the results.

For this assay, the target named is Probable G-protein coupled receptor 32 (Homo sapiens) (UniProt O75388). As to the kind of experiment: qHTS for Agonists of Human Resolvin D1 Receptor DRV1. Also: 0% is about no effect. The note with it: CHO-K1 GPR32 beta-arrestin PathHunter luminescence, 90 min; at 76.9 µM; hits give high values; zero percent set by DMSO-only wells. The gist of the method: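 Engineered CHO-K1 line co-expressing GPR32-ProLink and EA-beta-arrestin. Compound treatment lasted 90 min at 37 °C. Luminescence was recorded after 1 h with substrate at ambient temperature, relative to DMSO basal wells.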
Chain of UniProt O75388 (O75388 whole entry, looked up): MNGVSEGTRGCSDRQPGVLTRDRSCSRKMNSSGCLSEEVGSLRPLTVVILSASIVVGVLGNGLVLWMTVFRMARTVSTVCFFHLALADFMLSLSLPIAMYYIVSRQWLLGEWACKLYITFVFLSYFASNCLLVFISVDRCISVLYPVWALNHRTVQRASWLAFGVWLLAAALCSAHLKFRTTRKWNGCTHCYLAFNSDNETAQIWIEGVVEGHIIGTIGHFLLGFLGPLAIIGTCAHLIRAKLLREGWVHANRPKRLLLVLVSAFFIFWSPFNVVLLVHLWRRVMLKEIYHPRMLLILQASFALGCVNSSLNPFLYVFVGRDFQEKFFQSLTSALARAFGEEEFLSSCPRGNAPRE
A general note: Quantitative high-throughput screening tests each substance at several concentrations.
As to `C#CCOC(C(=O)OCCN(C)C)(c1ccccc1)c1ccccc1`, the activation is inactive: 1.59%.

Regarding `CCS(=O)(=O)Nc1cccc(C(=C2CCCCC2)c2cnc[nH]2)c1`, the activation was inactive: -4.59%.

Turning to `CC[C@@H](C(N)=O)N1CCCC1=O`, the activation was inactive: -0.941%.

With `NCC(O)c1cc(O)c(O)cc1F` (stereo not given), the activation is inactive: 10.8%.

Turning to `CCCCOC(=O)c1ccccc1C(=O)OCc1ccccc1`, the activation was inactive: -25%.

As to `O=C(O)CCCc1ccc(N(CCCl)CCCl)cc1`, the activation is inactive: 36.7% and inactive: 10.4%.

In the case of `C[C@H]1[C@@H]2Cc3ccc(O)cc3[C@@]1(C)CCN2C`, the activation was inactive: 0.369%.

As for `O=c1[nH]c2ccccc2n1CCCN1CCC(n2c(=O)[nH]c3cc(Cl)ccc32)CC1`, the activation was inactive: 35.3% and inactive: 6.65%.

For `COP(=S)(OC)Oc1ccc(SC)c(C)c1`, the activation is inactive: 22.2%.

`Cc1ccc(NC(=O)N(Cc2ccc3c(c2)OCO3)C2CCN(Cc3ccccc3)CC2)cc1Cl`: the activation was inactive: -8.07%.

On to `O=C(O)COc1nc(Cl)c(Cl)cc1Cl`, for which the activation is inactive: 15.9%.

`C#C[C@]1(O)CC[C@H]2[C@@H]3CCC4=CC(=O)CC[C@]4(C)[C@H]3CC[C@@]21C`: the activation is inactive: -4%.

Take `CC(C)[N+](C)(CCC(C(N)=O)(c1ccccc1)c1ccccc1)C(C)C`: the activation is inactive: 7.55%.

Turning to `COc1ccc2c(c1)C13CCCCC1C(C2)N(C)CC3` (stereo not given), the activation is inactive: -0.594%.

Regarding `O=[N+]([O-])c1c(Cl)c(Cl)cc(Cl)c1Cl`, the activation is inactive: -13.9%.

For `Cc1ccc(N=CN(C)C=Nc2ccc(C)cc2C)c(C)c1`, the activation is inactive: -8.94%.

On to `CC(C)CC(N(C)C)C1(c2ccc(Cl)cc2)CCC1` (stereo not given), for which the activation is inactive: 34.7%.

Regarding `CCOC(=O)c1ccc(NC(=O)c2cccn(Cc3ccc(C)cc3)c2=O)cc1`, the activation was inactive: 21.9%.

For `C=CCN1CC[C@]23c4c5ccc(O)c4O[C@H]2/C(=N/NC(=O)c2ccccc2)CC[C@@]3(O)[C@H]1C5`, the activation is inactive: -4.94%.

Turning to `Cc1ccc(Cn2cccc(C(=O)Nc3nnc(C)s3)c2=O)cc1`, the activation is inactive: 26.3%.

For `CCN(CC)C(=O)c1ccc(NC(=O)Cn2nc(-c3ccc(C)cc3)c3ccccc3c2=O)cc1`, the activation is inactive: 11.4%.

In the case of `COC(C)(C)CCCC(C)C/C=C/C(C)=C/C(=O)OC(C)C` (stereo not given), the activation is inactive: 3.62%.

For `CCOc1ccccc1CN(CCc1ccc2c(c1)OCO2)Cc1ccc(CC)cc1`, the activation is inactive: -6.59%.

In the case of `N[C@@H](Cn1oc(=O)[nH]c1=O)C(=O)O`, the activation was inactive: -10.7%.

With `CSc1ncc(C(=O)Nc2ccc(Cl)cc2C(=O)c2ccccc2)c(C)n1`, the activation was inactive: -8.99%.

As to `Cc1ccccc1-n1c(/C=C/c2ccc(O)cc2)nc2ccccc2c1=O`, the activation is inactive: -34.3%.

Take `CC(C)(C)c1ccc(OCC(=O)Nc2ccc(Cl)cc2C(=O)c2ccccc2)cc1`: the activation is inactive: 4.21%.

As to `NC(N)=NOCC[C@H](N)C(=O)O`, the activation is inactive: -1.65%.

On to `CC(Cc1ccc2c(c1)OCO2)NO` (stereo not given), for which the activation is inactive: -58.1%.

Consider `N#Cc1cccc(NC(=O)CSc2nc3c(cc2C#N)N2CCC3CC2)c1`, for which the activation is inactive: 20.6%.

`CC[C@H]1C[C@H]2[C@@H]3CCC4=CC(=O)CC[C@@H]4[C@H]3CC[C@]2(C)[C@H]1O`: the activation is inactive: 18.8%.

In the case of `Cc1nnc(NC(=O)c2cccn(Cc3cccc([N+](=O)[O-])c3)c2=O)s1`, the activation is inactive: -11.6%.

Take `S=C(NC1CCCCC1)N1CCC(c2cnc[nH]2)CC1`: the activation is inactive: -4.84%.

Turning to `C[N+]1(CCC(C(N)=O)(c2ccccc2)c2ccccc2)CCCCC1`, the activation is inactive: -0.145%.

Consider `c1ccc2c(c1)Sc1ccccc1N2CC1CN2CCC1CC2` (stereo not given), for which the activation was inactive: 8.89%.

For `O=C1C(I)=CC(=C(c2cc(I)c(O)c(I)c2)c2ccccc2C(=O)O)C=C1I`, the activation was inactive: -13.3%.

As to `CCCC12CN3CC(C)(CN(C1)C3c1ccccn1)C2=O` (stereo not given), the activation is inactive: -5.49%.

As for `CNCCc1ccc(O)c(O)c1`, the activation is inactive: -1.11%.

With `Clc1cnc(Oc2ccc(Oc3ncc(Cl)cc3Cl)cc2)c(Cl)c1`, the activation is inactive: -12.5%.

For the compound `CCCN(CCC)[C@@H]1CCc2ccc(O)cc2C1`, the activation is inactive: 0.842%.

On to `O=c1c2ccccc2nc(/C=C/c2ccccc2O)n1-c1ccc(Br)cc1`, for which the activation was inactive: -37.1%.

On to `Cc1ccc(-n2nc(C)c3c2NC(=O)CSC3c2ccc(O)cc2)cc1Cl` (stereo not given), for which the activation is inactive: 34.4%.

For the compound `C=CC[C@]1(O)CC[C@H]2[C@@H]3CCC4=CC(=O)CCC4=C3C=C[C@@]21C`, the activation was inactive: 21.4%.

In the case of `N#Cc1cccc(NC(=O)c2sc3nc4c(cc3c2N)N2CCC4CC2)c1`, the activation is inactive: 40.4%.

For `Cc1oc(-c2ccccc2Cl)nc1CN1C(=O)CN=C(c2ccccc2)c2cc(Cl)ccc21`, the activation is inactive: -12.3%.

In the case of `CCOc1ccc(NC(=O)c2cccn(Cc3cccc(Cl)c3)c2=O)cc1`, the activation is inactive: 7.82%.

Take `Cn1cnc(CCN)c1`: the activation is inactive: -11.1%.

As for `CC(Cc1ccc(O)cc1)NCC(O)c1cc(O)cc(O)c1` (stereo not given), the activation was inactive: -3.2% and inactive: 8.24%.

For the compound `CN(N=O)c1ccc(O)c(O)c1`, the activation is inactive: 27.9%.

Turning to `O=C1CC(c2ccc(F)cc2)c2c(c3ccccc3oc2=O)O1` (stereo not given), the activation is inactive: 3.19%.

Turning to `COc1ccc(CCNCc2ccc3c(c2)n(C)c(=O)n3C)cc1`, the activation is inactive: 5.3%.

As to `O=C(Nc1ccc(Br)cc1C(=O)c1ccccc1Cl)c1ccccc1F`, the activation is inactive: -2.65%.

With `COc1cc(CC(C)N)cc2c1OCO2` (stereo not given), the activation was inactive: 4.77%.

For the compound `N#Cc1cc2c(nc1SCC(=O)Nc1ccc(F)c(Cl)c1)C1CCN2CC1`, the activation was inactive: 17.7%.

As for `CCCN1CCC[C@@H]2Cc3nc(N)ncc3C[C@H]21`, the activation was inactive: 38.7% and inactive: 5.61%.

As to `CCN[C@@H](C)Cc1ccccc1`, the activation was inactive: 6.3%.

Take `C=CCN1C[C@H](C)N([C@H](c2ccc(C(=O)N(CC)CC)cc2)c2cccc(OC)c2)C[C@H]1C`: the activation was inactive: -0.101%.

On to `CC(C)=CCOc1c2occc2cc2ccc(=O)oc12`, for which the activation is inactive: 4.79% and inactive: -1.52%.

As to `N[C@@H](Cc1ccc(N(CCCl)CCCl)cc1)C(=O)O`, the activation is inactive: -15.5%.

For the compound `OC1CCCCC1N1CCC(c2ccccc2)CC1` (stereo not given), the activation was inactive: -5.55%.

Take `CC(Cc1ccc(OCC(=O)O)cc1)NCC(O)c1cccc(Cl)c1` (stereo not given): the activation is inactive: 8.32%.

In the case of `Cc1nnc(NC(=O)c2cccn(Cc3cccc(Cl)c3)c2=O)s1`, the activation was inactive: 17.1%.

In the case of `O=c1c2ccccc2nc(/C=C/c2ccccc2)n1-c1ccccc1F`, the activation is inactive: -3.1%.

On to `O=[N+]([O-])/C=C/c1ccc2c(c1)OCO2`, for which the activation was inactive: -18.3%.

In the case of `CC(C)N(CCC(C(N)=O)(c1ccccc1)c1ccccn1)C(C)C` (stereo not given), the activation is inactive: -10.8% and inactive: 2.37% and inactive: 6.19%.

`CN1CCN(c2oc(-c3ccc(COc4ccccc4)o3)nc2C#N)CC1`: the activation was inactive: -7.29%.

Regarding `C[C@]12CCC(=O)C=C1CC[C@@H]1[C@H]3CC[C@](C)(O)[C@@]3(C)CC[C@@H]12`, the activation was active: 106%.

As for `C[C@@H]1[C@@H]2Cc3ccc(O)cc3[C@@]1(C)CCN2CC1CC1`, the activation was inactive: -0.695%.

Turning to `C[C@H](N)[C@H](O)c1ccc(O)c(O)c1`, the activation is inactive: 6.72%.

In the case of `COc1cc(C(c2c(O)c3ccccc3oc2=O)c2c(C)n(C)n(-c3ccccc3)c2=O)ccc1O` (stereo not given), the activation is inactive: -0.464%.

As for `Nc1nc(N)nc(NC2CC2)n1`, the activation was inactive: 0.33%.

Take `Nc1c(C(=O)Nc2ccc(Cl)cc2)sc2nc3c(cc12)N1CCC3CC1`: the activation is active: 76.8%.

In the case of `Nc1ccc(N=Nc2ccccc2)cc1`, the activation is inactive: -75.3%.

For `Cn1cc(/C=C/c2nc3ccccc3c(=O)n2-c2ccccc2)c2ccccc21`, the activation was inactive: -8.23%.

With `O=C(Nc1ccc2c(c1)OCO2)c1cccn(Cc2cccc(F)c2)c1=O`, the activation was inactive: 0.456%.

On to `Cc1ccc(-c2nc3ccc(C)cn3c2CC(=O)N(C)C)cc1`, for which the activation is inactive: 11.3%.

`C[C@H](N)CN1CCc2ccc(Br)cc21`: the activation was inactive: -6.39%.

As for `CC(C(=O)c1ccccc1)N(C)C` (stereo not given), the activation is inactive: 5.57%.

Take `Cc1c(Cl)cccc1NC(=O)CN1C(=O)C(C)N=C(c2ccccc2)c2ccccc21` (stereo not given): the activation is inactive: 8.06%.

On to `COc1cc(C(c2c(O)c3ccccc3oc2=O)c2c(C)n(C)n(-c3ccccc3)c2=O)ccc1OCC(=O)O` (stereo not given), for which the activation is inactive: 6.2%.

Take `O=C(Nc1ccc(Cl)cc1C(=O)c1ccccc1)c1ccccc1Br`: the activation was inactive: -24.2%.

As to `CN1CCc2cc(Cl)c(O)cc2[C@H]2c3ccccc3CC[C@@H]21`, the activation is inactive: 33.8%.

Consider `NCCc1ccc(S(=O)(=O)F)cc1`, for which the activation is inactive: 14.4%.

Regarding `Nc1c(C(=O)Nc2ccc(Br)cc2F)sc2nc3c(cc12)N1CCC3CC1`, the activation was inactive: -0.953%.

`Cc1cccc(-n2c(/C=C/c3c(C)[nH]c4ccccc34)nc3ccccc3c2=O)c1`: the activation is inactive: 3.87%.

`CCN(CC)CCOC(=O)C(C)(c1ccccc1)c1ccccc1`: the activation is inactive: -2.94%.

As for `COc1ccccc1NC(=O)N(Cc1ccc2c(c1)OCO2)C1CCN(Cc2ccccc2)CC1`, the activation is inactive: -17.8%.

With `CN[C@@H]1C[C@@H](c2ccc(Cl)c(Cl)c2)c2ccccc21`, the activation was inactive: 15.1%.

Take `O=[N+]([O-])c1cc(O)c(O)c([N+](=O)[O-])c1`: the activation was inactive: -32%.

As for `CCc1ccccc1NC(=O)c1cccn(Cc2ccccc2F)c1=O`, the activation was inactive: 11.7%.

As for `CCCC(C)C1(CC)C(=O)N=C(S)NC1=O` (stereo not given), the activation is inactive: -20.7%.

Turning to `O=C(Nc1ccc2c(c1)OCCO2)c1cccn(Cc2cccc(F)c2)c1=O`, the activation is inactive: -0.872%.

Take `Nc1ccccc1C(=O)O`: the activation is inactive: -11.6%.

Turning to `COc1ccc(-c2nc(CN3C(=O)CN=C(c4ccccc4)c4cc(Cl)ccc43)c(C)o2)cc1`, the activation was inactive: -33.1%.

Regarding `CCOc1ccc2nc(NC(=O)c3cccn(Cc4ccc(Cl)cc4)c3=O)sc2c1`, the activation is inactive: 14.4%.
